In PubChem BioAssay AID488969 (Vanderbilt High Throughput Screening Facility, 2010) one finds z-score data, which are given here for 30 compounds.

Values joined by “and” are separate entries in the source; they are usually repeats but may differ in a detail not shown here. Equal entries are not always repeated. In all, about 110,000 compounds were measured (“z-score”: median about -0.1, highest 2% from about 2 on). Some of the results follow.

In this experiment the target is Metabotropic glutamate receptor 8 (Rattus norvegicus) (UniProt P70579). In words: rat mGluR8 modulators via GIRK flux, primary screen, cell-based, thallium flux, HTS (AID 488969). Conditions: HEK293 rat mGluR8, GIRK (G protein-gated inwardly rectifying potassium channel) thallium flux, FluoZin2; at 10 µM; stronger effect = higher value; submaximal glutamate (EC20) added with thallium.
Chain of UniProt P70579 (P70579 whole entry, looked up): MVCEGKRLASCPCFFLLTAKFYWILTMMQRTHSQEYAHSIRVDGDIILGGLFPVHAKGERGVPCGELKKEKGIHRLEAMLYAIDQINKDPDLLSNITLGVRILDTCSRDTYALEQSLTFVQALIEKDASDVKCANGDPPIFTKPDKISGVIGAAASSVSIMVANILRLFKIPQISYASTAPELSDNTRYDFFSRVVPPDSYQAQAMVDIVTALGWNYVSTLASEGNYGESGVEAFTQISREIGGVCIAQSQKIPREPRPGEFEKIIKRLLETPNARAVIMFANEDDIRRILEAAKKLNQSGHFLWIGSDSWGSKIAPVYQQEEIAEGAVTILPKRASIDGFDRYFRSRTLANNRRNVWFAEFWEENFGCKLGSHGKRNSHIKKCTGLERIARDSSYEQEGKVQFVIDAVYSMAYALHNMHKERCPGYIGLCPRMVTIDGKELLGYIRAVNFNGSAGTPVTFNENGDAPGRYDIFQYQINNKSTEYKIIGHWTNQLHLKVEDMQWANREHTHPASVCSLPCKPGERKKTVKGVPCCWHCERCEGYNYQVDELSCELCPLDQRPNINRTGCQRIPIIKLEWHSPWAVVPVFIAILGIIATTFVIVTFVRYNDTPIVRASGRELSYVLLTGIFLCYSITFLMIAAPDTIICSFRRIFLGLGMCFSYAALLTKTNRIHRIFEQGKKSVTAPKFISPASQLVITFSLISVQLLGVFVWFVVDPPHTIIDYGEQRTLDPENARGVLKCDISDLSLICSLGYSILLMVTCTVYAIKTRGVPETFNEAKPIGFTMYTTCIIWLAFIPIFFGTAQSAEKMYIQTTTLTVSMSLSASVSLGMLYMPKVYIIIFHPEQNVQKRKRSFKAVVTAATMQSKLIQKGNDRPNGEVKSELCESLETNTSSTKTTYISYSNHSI
Compound `N#CNC(=Nc1ccc(F)cc1)SCc1ccccc1` had a z-score of -0.0345.

Compound `COc1cc(C(=O)Nc2ccc(S(=O)(=O)N(C)c3ccccc3)cc2)cc(OC)c1OC` registered a z-score of -0.33.

Consider `O=S(=O)(O/N=C1\CCCc2ccccc21)c1ccccc1`, for which the z-score is -0.18.

`CN(C)/C=C(/C#N)C(=O)c1cccc(Oc2ccc(C(C)(C)C)cc2)c1`: the z-score was found to be 0.845.

On to `O=C(Cn1cnc2ccccc2c1=O)N1CCN(c2ccccc2)CC1`, for which the z-score was -0.0843.

With `COc1ccc(Cl)cc1NC(=O)Cn1nc(-c2ccc(C)cc2)n(C)c1=S`, the z-score is -0.361.

For `Cc1ccc(CCNC(=O)C2CCN(S(=O)(=O)c3cccc4nonc34)CC2)cc1`, the z-score turned out to be 0.305.

In turn, `CCCN1CCCc2ccccc21` had a z-score of -0.158.

Compound `CCC(=O)Nc1c(C)n[nH]c1C` had a z-score of -0.256.

`CCN(NC(=O)C(O)(c1ccc(F)cc1)c1ccc(F)cc1)C(=O)c1ccccc1` displayed a z-score of 0.323.

`COc1ccc(N2CCN(S(=O)(=O)c3ccc(C(=O)NCc4ccco4)cc3)CC2)cc1` gave a z-score of -0.212.

Take `N#Cc1cccc(-c2cn(S(=O)(=O)c3ccc(Cl)cc3)nc2N)c1`: the z-score is -0.521.

As to `COC(=O)c1ccc(C2C(Oc3ccccc3)C(=O)N2CCc2ccc(OC)c(OC)c2)cc1` (stereo not given), the z-score was 0.032.

As to `COCc1cc(C)nc(SCC(=O)Nc2cccc(C)c2C)c1C#N`, the z-score was -0.122.

As for `CCOC(=O)C1CCCN(CCCc2ccccc2)C1` (stereo not given), the z-score was -0.0595 and 0.125.

Compound `CCCCC1=NN2C(=N)CC(=O)N=C2S1` yielded a z-score of 0.0499.

`Cc1ccccc1N/C(SCc1ccc(Cl)cc1)=C(/C#N)C(=O)NCc1ccco1` came in with a z-score of -0.0372.

Consider `CCOc1cc(NC(=O)c2ccco2)c(OCC)cc1NC(=O)COc1ccccc1C`, for which the z-score was -0.025.

In turn, `COc1ccc(C(=O)NC(=S)Nc2nc(C)c(C(=O)N(C)C)s2)cc1` had a z-score of -0.0547.

Turning to `CCOC(=O)N1CCC(NC(=O)Cn2ncc3c2-c2cc(C)ccc2OC3)CC1`, the z-score was -0.897.

`COc1cccc(N/C(SCc2ccccc2Cl)=C(/C#N)C(=O)NCc2cccs2)c1` yielded a z-score of -0.163.

The compound `COc1cccc(NC(=O)N2CCCC(C(=O)NCc3ccc(F)cc3)C2)c1` (stereo not given) returned a z-score of 0.595.

Regarding `CC(=O)Nc1cccc(Oc2ncnc3scc(-c4ccc(C)cc4)c23)c1`, the z-score was -0.497.

Consider `O=C(c1cncc(Br)c1)N1CCCc2ccccc21`, for which the z-score is 0.0197.

Regarding `CCN1C(=O)/C(=C/c2ccc(C)s2)SC1=Nc1ccc(OC)cc1`, the z-score is -0.29.

In turn, `CN1CCN(NC(=O)C2CC2)CC1` came in with a z-score of 0.0148.

As to `CCn1c(CC(=O)Nc2ccccc2F)nnc1SCC(=O)N1CCN(c2ccccc2)CC1`, the z-score was -0.19.

For `Cc1cccc(C)c1NC(=O)CSc1nc(C)c(CC(=O)c2ccc(Br)cc2)c(C)c1C#N`, the z-score was -0.0545.

In turn, `CC(=O)Nc1cc2c(cc1C(=O)C(C)C)OCCO2` showed a z-score of -0.0402.

On to `CC12CCC(c3nnc(SCc4ccc(Cl)cc4)nc31)C2(C)C` (stereo not given), for which the z-score was 0.117.
